Data: PubChem BioAssay AID904 (National Center for Advancing Translational Sciences (NCATS), 2007)
Screen size: about 55,000 compounds; about 530 (0.96%) were called active. The shares of active, inactive and inconclusive entries below differ from those in the screen. Calls come from the whole dose curve; as a rule, active = well fitted cell-killing curve with a large enough effect; inconclusive = small, poorly fitted or top-dose-only effect; inactive = no such curve, though single readings can be large or run the other way. Potencies beside an inconclusive call are fits to weak or partial responses and may not hold up.

assay: qHTS Screen for Compounds that Selectively Target Cancer Cells with p53 Mutations: Cytotoxicity of p53 Null Cells at the Nonpermissive Temperature; details: H1299 p53-null (neo) cells, 39C, ATPlite viability, 24 h; series mostly up to 46.1 µM; note: nearly all actives have a fitted effect of over 50% in size
Outline: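 H1299 lung cancer cells, p53-null (H1299-neo) or expressing p53 A138V (H1299-p53A138V), were plated overnight at 37C, then exposed to compounds at up to 46 uM for 24 hr at 39C. Viability was read by ATP-based luminescence.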
Potency is the fitted concentration of half-maximal effect; tags give direction and shape of the fitted curve.

Compound	Potency
COc1ccccc1NC(=O)C1=C(C)Nc2nc(SCc3ccccc3)nn2C1c1ccncc1 (stereo not drawn)	inactive
CC(=O)c1ccc(NC(=O)COCc2cc(-c3ccc(F)cc3)on2)cc1	inactive
O=C(Nc1ccc(C(F)(F)F)cc1)C(Cc1ccccc1)n1cccc1 (stereo not drawn)	inconclusive: 12.6 µM [cytotoxic, partial curve]
CC(C)c1ccc(CNc2n[nH]c(-c3ccco3)n2)cc1	inconclusive: 31.6 µM [cytotoxic, partial curve]
CCCCn1c(=N)n(CCOc2ccccc2OC)c2ccccc21	inconclusive: 25.1 µM [cytotoxic, single point]
CCOc1ccc2oc(=O)cc(CN3CCN(c4ccccc4OC)CC3)c2c1	inactive
CCc1cccc(NC(=O)c2c(C)oc3nc(C)nc(N4CCCC4)c23)c1	inactive
O=C(c1ccc2c(c1)N(Cc1ccc(Cl)cc1)C(=O)c1ccccc1S2(=O)=O)N1CCN(c2ccccn2)CC1	inactive
Cc1ccc(OCC(=O)Nc2cccc(C(=O)OCc3cc(=O)n4c(C)csc4n3)c2)cc1	inconclusive: 0.0251 µM [cytotoxic, full curve, poor fit]
COc1ccc(-n2nc3c(N4CCCC(C(=O)NCCc5ccccc5C)C4)nnc(C)c3c2C)cc1 (stereo not drawn)	inactive
CCCCOC(=O)c1ccc(Nc2ncnc3c2cnn3-c2cccc(C)c2)cc1	inactive
Cc1cccc(Cn2c(Cc3ccccc3)nc3ccccc32)c1	active: 20 µM
CCC(=O)Nc1cccc(-c2nc3cc(C)ccc3o2)c1	inconclusive: 11.2 µM [cytotoxic, single point]
CC(C)NC(=O)c1cc2c(s1)CCCC2	active: 10 µM
CCC1CCCCN1Cc1nc2c(c(=O)n(C)c(=O)n2C)n1Cc1ccccc1 (stereo not drawn)	inconclusive: 0.158 µM [cytotoxic, single point]
COC(=O)c1ccc(NC(=O)CCc2c(C)nn(-c3ccc(N4CCCCC4)nn3)c2C)cc1	inconclusive: 11.2 µM [cytotoxic, partial curve]
COC(=O)c1ccccc1NC(=O)CCS(=O)(=O)c1nc(-c2ccc3c(c2)OCO3)cc(C(F)(F)F)n1	inconclusive: 12.6 µM [cytotoxic, single point]
Cc1c(Cl)cccc1Nc1nn2c(=O)c3ccc(C(=O)N(C)Cc4ccccc4)cc3nc2s1	inactive
CCOc1cc(S(=O)(=O)NCCc2c(C)[nH]c3ccc(C)cc23)ccc1Br	inconclusive: 31.6 µM [cytotoxic, single point]
Cc1nnc(N2CCN(C(=O)Nc3cc(F)ccc3F)CC2)c2nn(-c3ccc(Cl)cc3)c(C)c12	inconclusive: 3.16 µM [cytotoxic, single point]
O=C(Cn1c(=O)c2cccn2c2ccc(F)cc21)NCc1cccc(Cl)c1	inconclusive: 17.8 µM [cytotoxic, partial curve]
Cc1ccc(CNC(=O)CN2Cc3ccccc3C2=O)cc1	inactive

Compound	Potency
Cc1cccc(NC(=O)c2cccc(N3CCCS3(=O)=O)c2)c1	inconclusive: 3.55 µM [cytotoxic, partial curve, poor fit]
Cc1cccc(NC(=O)C2CCCN2S(=O)(=O)c2cccc3nsnc23)c1C (stereo not drawn)	inconclusive: 25.1 µM [cytotoxic, single point]
CN(C)c1ccc(C(CNC(=O)c2ccc(C(C)(C)C)cc2)N2CCCC2)cc1 (stereo not drawn)	inconclusive: 35.5 µM [cytotoxic, single point]
Cc1cc(C)cc(NC(=O)CN2C(=O)CSc3ccc(S(=O)(=O)N(C)C)cc32)c1	inconclusive: 1.58 µM [cytotoxic, full curve]
CCC1CN(C(=O)NCc2ccc(C)cc2)c2cc(C)ccc2O1 (stereo not drawn)	inconclusive: 20 µM [cytotoxic, single point]
CCCCCn1c(=O)[nH]c2cc(C(=O)Nc3cc(OC)cc(OC)c3)ccc2c1=O	inactive
COCCCNC(=O)c1ccc2c(c1)N=C(C)c1c(C)ccc(C)c1S2	inconclusive: 0.0447 µM [cytotoxic, full curve]
COc1ccc(-c2cc(=O)n3[nH]cnc3n2)cc1	inconclusive: 31.6 µM [cytotoxic, single point]
O=C(CSc1nnc(NC(=O)NC2CCCCC2)s1)Nc1ccccc1F	inconclusive: 15.8 µM [cytotoxic, partial curve]
O=C(Nc1ccc(-c2cc(C(F)(F)F)nn2-c2ccccc2)cc1)c1cccc(F)c1	inconclusive: 35.5 µM [cytotoxic, single point]
CCOC(=O)Cn1c(=O)n(CC2CCCO2)c2nc(-c3ccc(OC)cc3OC)nc(C(N)=O)c21 (stereo not drawn)	inactive
COc1ccc(NC(=O)CSc2nnc(N)s2)cc1	inconclusive: 5.62 µM [cytotoxic, single point]
COc1cc(C(=O)Nc2ccc3nc4n(c(=O)c3c2)CCCCC4)cc(OC)c1OC	inconclusive: 22.4 µM [cytotoxic, partial curve, poor fit]
O=C(Nc1ccc(-c2nc3cc(Cl)ccc3o2)cc1)c1cc(Br)ccc1Cl	inconclusive: 20 µM [cytotoxic, single point]
Cc1ccc(CNc2nc(-c3ccco3)nn2C(=O)c2ccccc2[N+](=O)[O-])cc1	inconclusive: 12.6 µM [cytotoxic, partial curve]
Cc1ccccc1C(=O)Nc1cccc(NC(=O)c2ccc(C(C)(C)C)cc2)c1	inconclusive: 20 µM [cytotoxic, partial curve]
CCC(C(=O)NC1CCCCC1)n1c(SCc2ccccc2F)nc2ccncc21 (stereo not drawn)	inconclusive: 12.6 µM [cytotoxic, single point]
Cc1ccc2scc(N3CCCCC3C)c(=O)c2c1 (stereo not drawn)	active: 15.8 µM
COc1ccc(NC(=O)CSc2nc3ccccc3nc2N2CCOCC2)c(OC)c1	inconclusive: 0.316 µM [cytotoxic, partial curve, poor fit]
COc1ccc(C(=O)/C=C/c2cn(CC(O)CN3CCCCCC3)c3ccccc23)cc1OC (stereo not drawn)	inconclusive: 20 µM [cytotoxic, partial curve]
CCCCc1ccc(C(=O)c2c(N)c(C(=O)Nc3cccc(OC)c3)c3ccccn23)cc1	inactive
